In patent publication US20220033522A1 (Janssen / Centocor, published 2022):

Tests used:
Experiment in all cases: BLI (Octet), his-tagged pIgR on anti-His biosensor
CV19B308 = molecular target: T1, CV19B308 (human, UniProt P01857 part only = IgG part)
T1 construct: domain: Fc

CV19B283 = CV19B283 (human)
CV19B301 = molecular target: T2, CV19B301 (human, UniProt P01857 part only = IgG part)
T2 construct: domain: Fc

B1: polymeric immunoglobulin receptor (pIgR), his-tagged (receptor)
chain: not shown
CV19B308
  koff: 1.44e-06 s⁻¹
CV19B283
  Kd: 7.8 nM
CV19B301
  koff: 5.93e-05 s⁻¹
